Consider 11 molecules from the supplement of paper PMC12423691.

The chains are these.
B1: SPZ1, Q9BXG8 (protein)
chain: MASSAKSAEMPTISKTVNPTPDPHQEYLDPRITIALFEIGSHSPSSWGSLPFLKNSSHQVTEQQTAQKFNNLLKEIKDILKNMAGFEEKITEAKELFEETNITEDVSAHKENIRGLDKINEMLSTNLPVSLAPEKEDNEKKQEMILETNITEDVSAHKENIRGLDKINEMLSTNLPVSLAPEKEDNEKKQQMIMENQNSENTAQVFARDLVNRLEEKKVLNETQQSQEKAKNRLNVQEETMKIRNNMEQLLQEAEHWSKQHTELSKLIKSYQKSQKDISETLGNNGVGFQTQPNNEVSAKHELEEQVKKLSHDTYSLQLMAALLENECQILQQRVEILKELHHQKQGTLQEKPIQINYKQDKKNQKPSEAKKVEMYKQNKQAMKGTFWKKDRSCRSLDVCLNKKACNTQFNIHVARKALRGKMRSASSLR
B2: NFAM1, Q8NET5 (protein)
chain: MENQPVRWRALPGLPRPPGLPAAPWLLLGVLLLPGTLRLAGGQSVTHTGLPIMASLANTAISFSCRITYPYTPQFKVFTVSYFHEDLQGQRSPKKPTNCHPGLGTENQSHTLDCQVTLVLPGASATGTYYCSVHWPHSTVRGSGTFILVRDAGYREPPQSPQKLLLFGFTGLLSVLSVVGTALLLWNKKRMRGPGKDPTRKCPDPRSASSPKQHPSESVYTALQRRETEVYACIENEDGSSPTAKQSPLSQERPHRFEDDGELNLVYENL
B3: BLZF1, Q9H2G9 (protein)
chain: MTTKNLETKVTVTSSPIRGAGDGMETEEPPKSVEVTSGVQSRKHHSLQSPWKKAVPSESPGVLQLGKMLTEKAMEVKAVRILVPKAAITHDIPNKNTKVKSLGHHKGEFLGQSEGVIEPNKELSEVKNVLEKLKNSERRLLQDKEGLSNQLRVQTEVNRELKKLLVASVGDDLQYHFERLAREKNQLILENEALGRNTAQLSEQLERMSIQCDVWRSKFLASRVMADELTNSRAALQRQNRDAHGAIQDLLSEREQFRQEMIATQKLLEELLVSLQWGREQTYSPSVQPHSTAELALTNHKLAKAVNSHLLGNVGINNQKKIPSTVEFCSTPAEKMAETVLRILDPVTCKESSPDNPFFESSPTTLLATKKNIGRFHPYTRYENITFNCCNHCRGELIAL
B4: RARB, P10826 (protein)
chain: MTTSGHACPVPAVNGHMTHYPATPYPLLFPPVIGGLSLPPLHGLHGHPPPSGCSTPSPATIETQSTSSEELVPSPPSPLPPPRVYKPCFVCQDKSSGYHYGVSACEGCKGFFRRSIQKNMIYTCHRDKNCVINKVTRNRCQYCRLQKCFEVGMSKESVRNDRNKKKKETSKQECTESYEMTAELDDLTEKIRKAHQETFPSLCQLGKYTTNSSADHRVRLDLGLWDKFSELATKCIIKIVEFAKRLPGFTGLTIADQITLLKAACLDILILRICTRYTPEQDTMTFSDGLTLNRTQMHNAGFGPLTDLVFTFANQLLPLEMDDTETGLLSAICLICGDRQDLEEPTKVDKLQEPLLEALKIYIRKRRPSKPHMFPKILMKITDLRSISAKGAERVITLKMEIPGSMPPLIQEMLENSEGHEPLTPSSSGNTAEHSPSISPSSVENSGVSQSPLVQ
B5: TAF1B, Q53T94 (protein)
chain: MDLEEAEEFKERCTQCAAVSWGLTDEGKYYCTSCHNVTERYQEVTNTDLIPNTQIKALNRGLKKKNNTEKGWDWYVCEGFQYILYQQAEALKNLGVGPELKNDVLHNFWKRYLQKSKQAYCKNPVYTTGRKPTVLEDNLSHSDWASEPELLSDVSCPPFLESGAESQSDIHTRKPFPVSKASQSETSVCSGSLDGVEYSQRKEKGIVKMTMPQTLAFCYLSLLWQREAITLSDLLRFVEEDHIPYINAFQHFPEQMKLYGRDRGIFGIESWPDYEDIYKKTVEVGTFLDLPRFPDITEDCYLHPNILCMKYLMEVNLPDEMHSLTCHVVKMTGMGEVDFLTFDPIAKMAKTVKYDVQAVAIIVVVLKLLFLLDDSFEWSLSNLAEKHNEKNKKDKPWFDFRKWYQIMKKAFDEKKQKWEEARAKYLWKSEKPLYYSFVDKPVAYKKREMVVNLQKQFSTLVESTATAGKKSPSSFQFNWTEEDTDRTCFHGHSLQGVLKEKGQSLLTKNSLYWLSTQKFCRCYCTHVTTYEESNYSLSYQFILNLFSFLLRIKTSLLHEEVSLVEKKLFEKKYSVKRKKSRSKKVRRH
B6: FOXI1, Q12951 (protein)
chain: MSSFDLPAPSPPRCSPQFPSIGQEPPEMNLYYENFFHPQGVPSPQRPSFEGGGEYGATPNPYLWFNGPTMTPPPYLPGPNASPFLPQAYGVQRPLLPSVSGLGGSDLGWLPIPSQEELMKLVRPPYSYSALIAMAIHGAPDKRLTLSQIYQYVADNFPFYNKSKAGWQNSIRHNLSLNDCFKKVPRDEDDPGKGNYWTLDPNCEKMFDNGNFRRKRKRKSDVSSSTASLALEKTESSLPVDSPKTTEPQDILDGASPGGTTSSPEKRPSPPPSGAPCLNSFLSSMTAYVSGGSPTSHPLVTPGLSPEPSDKTGQNSLTFNSFSPLTNLSNHSGGGDWANPMPTNMLSYGGSVLSQFSPHFYNSVNTSGVLYPREGTEV
B7: PLAGL2, Q9UPG8 (protein)
chain: MTTFFTSVPPWIQDAKQEEEVGWKLVPRPRGREAESQVKCQCEISGTPFSNGEKLRPHSLPQPEQRPYSCPQLHCGKAFASKYKLYRHMATHSAQKPHQCMYCDKMFHRKDHLRNHLQTHDPNKEALHCSECGKNYNTKLGYRRHLAMHAASSGDLSCKVCLQTFESTQALLEHLKAHSRRVAGGAKEKKHPCDHCDRRFYTRKDVRRHLVVHTGRKDFLCQYCAQRFGRKDHLTRHVKKSHSQELLKIKTEPVDMLGLLSCSSTVSVKEELSPVLCMASRDVMGTKAFPGMLPMGMYGAHIPTMPSTGVPHSLVHNTLPMGMSYPLESSPISSPAQLPPKYQLGSTSYLPDKLPKVEVDSFLAELPGSLSLSSAEPQPASPQPAAAAALLDEALLAKSPANLSEALCAANVDFSHLLGFLPLNLPPCNPPGATGGLVMGYSQAEAQPLLTTLQAQPQDSPGAGGPLNFGPLHSLPPVFTSGLSSTTLPRFHQAFQ
B8: RORB, Q92753 (protein)
chain: MCENQLKTKADATAQIEVIPCKICGDKSSGIHYGVITCEGCKGFFRRSQQNNASYSCPRQRNCLIDRTNRNRCQHCRLQKCLALGMSRDAVKFGRMSKKQRDSLYAEVQKHQQRLQEQRQQQSGEAEALARVYSSSISNGLSNLNNETSGTYANGHVIDLPKSEGYYNVDSGQPSPDQSGLDMTGIKQIKQEPIYDLTSVPNLFTYSSFNNGQLAPGITMTEIDRIAQNIIKSHLETCQYTMEELHQLAWQTHTYEEIKAYQSKSREALWQQCAIQITHAIQYVVEFAKRITGFMELCQNDQILLLKSGCLEVVLVRMCRAFNPLNNTVLFEGKYGGMQMFKALGSDDLVNEAFDFAKNLCSLQLTEEEIALFSSAVLISPDRAWLIEPRKVQKLQEKIYFALQHVIQKNHLDDETLAKLIAKIPTITAVCNLHGEKLQVFKQSHPEIVNTLFPPLYKELFNPDCATGCK
B9: AEBP2, Q6ZN18 (protein)
chain: MAAAITDMADLEELSRLSPLPPGSPGSAARGRAEPPEEEEEEEEEEEEAEAEAVAALLLNGGSGGGGGGGGGGVGGGEAETMSEPSPESASQAGEDEDEEEDDEEEEDESSSSGGGEEESSAESLVGSSGGSSSDETRSLSPGAASSSSGDGDGKEGLEEPKGPRGSQGGGGGGSSSSSVVSSGGDEGYGTGGGGSSATSGGRRGSLEMSSDGEPLSRMDSEDSISSTIMDVDSTISSGRSTPAMMNGQGSTTSSSKNIAYNCCWDQCQACFNSSPDLADHIRSIHVDGQRGGVFVCLWKGCKVYNTPSTSQSWLQRHMLTHSGDKPFKCVVGGCNASFASQGGLARHVPTHFSQQNSSKVSSQPKAKEESPSKAGMNKRRKLKNKRRRSLPRPHDFFDAQTLDAIRHRAICFNLSAHIESLGKGHSVVFHSTVIAKRKEDSGKIKLLLHWMPEDILPDVWVNESERHQLKTKVVHLSKLPKDTALLLDPNIYRTMPQKRLKRTLIRKVFNLYLSKQ
B10: IRF2, P14316 (protein)
chain: MPVERMRMRPWLEEQINSNTIPGLKWLNKEKKIFQIPWMHAARHGWDVEKDAPLFRNWAIHTGKHQPGVDKPDPKTWKANFRCAMNSLPDIEEVKDKSIKKGNNAFRVYRMLPLSERPSKKGKKPKTEKEDKVKHIKQEPVESSLGLSNGVSDLSPEYAVLTSTIKNEVDSTVNIIVVGQSHLDSNIENQEIVTNPPDICQVVEVTTESDEQPVSMSELYPLQISPVSSYAESETTDSVPSDEESAEGRPHWRKRNIEGKQYLSNMGTRGSYLLPGMASFVTSNKPDLQVTIKEESNPVPYNSSWPPFQDLPLSSSMTPASSSSRPDRETRASVIKKTSDITQARVKSC
B11: ZNF215, Q9UL58 (protein)
chain: MQPLSKLMAISKPRNLSLREQREVLRADMSWQQETNPVVETHDSEASRQKFRHFQYLKVSGPHEALSQLWELCLQWLRPEIHTKKQIIELLVLEQFLAILPEEVRTWVNLQHPNNSKDMVTLIEDVIEMLEDEDMPCKDSALQMGSIKEKMKAGSRTGKPQEPVTFKDVVVEFSKEEWGQLDSAVKNLYRNVMLENFRNLNSLRKAHLLSKPFESLKLESKKKRWIMEKEIPRKTIFDMKSISGEESSHGVIMTRLTESGHPSSDAWKGENWLYRNQKKWDINLPQEAFIPETIYTEEEDFECSENKKSFDINSVSSICAIQVGIPSRKGSPKCDKFKTYFKFNLDSVGKQHSEYEYGNDLSLSTDIRHQKSHTTMNSYECYQCGKAFCRSSSLIRHQIIHTGEKPYKCSECGRFFNRRTNLTKHQKLHAEAKACTSNKCGKAFSKSEDSNNPTLHFGNNFYQCVNCGKSFNRSSSLIRHQMIHTGEKPFKCKECSKAFNRSSNLVKHQKLHTRDKS

This is one part of the list. Binding of human transcription factors and regulators to the viral nucleoprotein by AlphaScreen, crude cell-free proteins, amounts not normalised, one pass. Fold of the Venus control; higher = more signal. No active / inactive call. Single-pass screen; sequences are the whole Swiss-Prot entries looked up by name.

The target in the test is nucleoprotein N of Crimean-Congo hemorrhagic fever virus. The experiment in a line: AlphaScreen luminescence signal relative to Venus negative control (fold); higher = stronger binding to CCHFV N. As for the experimental part: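 AlphaScreen binding of cell-free made, FLAG-GST-tagged human transcription factors and regulators (crude translation products) to biotinylated N protein; signal as fold of the FLAG-GST-Venus control. One pass.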
B1: the AlphaScreen luminescence signal was 5.02.
To B2 belongs 2; to B3, 2.28.
To B4 belongs 3.91; to B5, 2.7; to B6, 1.67.
B7 gave an AlphaScreen luminescence signal of 2.88.
In the case of B8 it was 4.09.
For B9, the AlphaScreen luminescence signal was 2.47.
The molecule B10 returned an AlphaScreen luminescence signal of 3.67.
Regarding B11, the AlphaScreen luminescence signal is 2.05.
